This is one part of the list. The main result of the screen is listed elsewhere. These columns were measured beside it and carry no call. Compounds called inactive in the main read-out are mostly missing here. Potencies come from curve fits of mixed quality, noted in brackets.
Assay: qHTS Assay for Lipid Storage Modulators (AID 1519)
Conditions: Drosophila S3 cells, BODIPY lipid droplet/cell ratio, laser cytometry, cells loaded with oleic acid
How it was run: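 Cells seeded at 5,000 per well were treated with compounds over a concentration series and loaded with oleic acid (400 uM, as added). Lipid droplet fluorescence (488 nm excitation, 500-530 nm channel) was read by laser-scanning cytometry and normalized to 20 uM Triacsin C.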

[1] = measured here: cell count channel max response
[2] = measured here: cell number channel AC50
[3] = measured here: lipid (BODIPY) channel AC50
[4] = measured here: lipid channel max response
Tags give direction and shape of the fitted curve.

## COc1ccc2[nH]cc(CCNc3ncncc3-c3cccnc3)c2c1
[1]
  max response: 22.8%
[2]
  AC50: 112 nM [rising, full curve, poor fit]
[3]
  AC50: 112 nM [rising, full curve, poor fit]
[4]
  max response: 26.7%

## O=C(c1ccncc1)N1CCC2(CCCN(Cc3ccccc3)C2)CC1
[1]
  max response: 30%
[2]
  AC50: 708 nM [rising, full curve]
[3]
  AC50: 562 nM [rising, full curve, poor fit]
[4]
  max response: 38.6%

## CCNc1ncc2nc(-c3cn(C)c4ccccc34)c(=O)n(C[C@H]3CCCO3)c2n1
[1]
  max response: 23.1%
[2]
  AC50: 158 nM [rising, full curve, poor fit]
[3]
  AC50: 200 nM [rising, full curve]
[4]
  max response: 32.7%

## Cn1cccc1C(=O)N1CCC2(CCCN(c3ccc(-c4ccccc4)cc3)C2)CC1
[1]
  max response: 23%
[2]
  AC50: 4470 nM [rising, full curve, poor fit]
[3]
  AC50: 28200 nM [falling, single point]
[4]
  max response: -40.3%

## CC1(COc2ccc(C[C@H]3SC(=O)NC3=O)cc2)CCCCC1
[1]
  max response: 44.4%
[2]
  AC50: 1410 nM [rising, full curve, poor fit]
[3]
  AC50: 1410 nM [rising, full curve, poor fit]
[4]
  max response: 46.1%

## CC(=O)NCCNc1ncnc2ccc(-c3ccc4c(c3)OCO4)cc12
[1]
  max response: 25.3%
[2]
  AC50: 5.01 nM [rising, full curve, poor fit]
[3]
  AC50: 5.62 nM [rising, full curve, poor fit]
[4]
  max response: 35%

## COCCNC(=O)COc1ccc(OCCNC[C@@H](O)COc2ccccc2)cc1
[1]
  max response: 51.3%
[2]
  AC50: 39800 nM [rising, single point]
[3]
  AC50: 39800 nM [rising, single point]
[4]
  max response: 66.5%

## c1ccc2c(NC3CC3)nc(-c3ccoc3)nc2c1
[1]
  max response: 23.3%
[2]
  AC50: 2000 nM [rising, partial curve, poor fit]
[3]
  AC50: 56.2 nM [rising, full curve, poor fit]
[4]
  max response: 32.4%

## COCCn1c(=O)c(-c2ccccc2)nc2cnc(N3CCOCC3)nc21
[1]
  max response: 18.7%
[2]
  AC50: 178 nM [rising, full curve, poor fit]
[3]
  AC50: 282 nM [rising, full curve, poor fit]
[4]
  max response: 25.9%

## COc1cccc(-c2nc(NCc3cccnc3)c3ccccc3n2)c1
[1]
  max response: 35.3%
[2]
  AC50: 1260 nM [rising, full curve, poor fit]
[3]
  AC50: 1120 nM [rising, full curve]
[4]
  max response: 42.2%

## C/C(=C\COc1cc(=O)[nH]c2ccccc12)CCC(O)C(C)(C)O (centres undefined)
[1]
  max response: 98.3%
[2]
  AC50: 11200 nM [rising, partial curve]
[3]
  AC50: 10000 nM [rising, partial curve]
[4]
  max response: 122%

## CC1CC2(C)Oc3ccccc3C3OCC1(COC(=O)Nc1ccccc1)C(C)C32 (centres undefined)
[1]
  max response: 89.2%
[2]
  AC50: 3550 nM [rising, full curve]
[3]
  AC50: 3550 nM [rising, full curve]
[4]
  max response: 118%

## O=C(c1cccc(F)c1)N1CCC2(CC1)CN(c1ccc(-c3ccccc3)cc1)C2
[1]
  max response: -38%
[2]
  AC50: 39800 nM [falling, single point]
[3]
  AC50: 39800 nM [falling, single point]
[4]
  max response: -78%

## CN(C)C(=O)c1ccc(-c2ccc3ncnc(Nc4ccccc4)c3c2)cc1
[1]
  max response: 14.1%
[2]
  AC50: 1780 nM [rising, partial curve, poor fit]
[3]
  AC50: 1780 nM [rising, full curve, poor fit]
[4]
  max response: 19.4%

## N#Cc1ccccc1-c1ccc2ncnc(NC3CC3)c2c1
[1]
  max response: 35.7%
[2]
  AC50: 1580 nM [rising, partial curve]
[3]
  AC50: 1120 nM [rising, partial curve]
[4]
  max response: 43.7%

## Cc1cccc(CNc2ccnc(-c3ccccc3Cl)n2)c1
[1]
  max response: 24.5%
[2]
  AC50: 1120 nM [rising, partial curve, poor fit]
[3]
  AC50: 1120 nM [rising, full curve, poor fit]
[4]
  max response: 27.2%
